Results on nine variants are retold here after the supplement of paper PMC12217912.

The other results are listed elsewhere or left out. The full chains were built here from the parent and the listed change. Values near 0.05 are background.

Sequences and labels used below:
B1: TEV protease; numbered along this chain (parent)
chain: MGESLFKGPRDYNPISSSICHLTNESDGHTTSLYGIGFGPFIITNKHLFRRNNGTLVVQSLHGVFKVKDTTTLQQHLVDGRDMIIIRMPKDFPPFPQKLKFREPQREERICLVTTNFQTKSMSSMVSDTSCTFPSGDGIFWKHWIQTKDGQCGSPLVSTRDGFIVGIHSASNFTNTNNYFTSVPKNFMELLTNQEAQQWVSGWRLNADSVLWGGHKVFMVKPEEPFQPVKEATQL

The variants in this assay derive from B1. As to the kind of experiment: raw area under fraction-flipped curve 0-4 h after induction (AUC4h, not background-subtracted), DNA-recorder readout of cleavage of the substrate (dimensionless); higher = more cleavage of the substrate by the protease variant. The note with it: temperature: 34 °C; time window: 0-4 h after rhamnose induction.
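Note: Bxb1 expression induced with 0.2% (w/v) L-rhamnose at OD600 near 0.5, cultures sampled hourly, flipped fraction per protease–substrate barcode pair counted by paired-end Illumina sequencing.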

MGESLFKGPRDYNPISSSICHLTNESDGHTTSLYGIGFGPFIITNKHLFRRNNGTLVVQSLHGVFKVKDTTTLQEHLVDGRDMIIIRMPKDFPPFPQKLKFREPQREERICLVTTNFQTKSMSSMVSDTSCTFPSGDGIFWKHWIQTKDGQCGSPLVSTRDGFIVGIHSASNFTNTNNYFTSVPKNFMELLTNQEAQQWVSGWRLNADSVLWGGHKVFMVKPEEPFQPVKEATQL [Q75E]: the “area with substrate ENLCFQS” value amounted to 0.0598, the “area with substrate ENLDFQS” value turned out to be 0.0579, the “area with substrate ENLEFQS” value came out at 0.064 and the “area with substrate ENLFFQS” value was 0.0529. Besides, the “area with substrate ENLIFQS” value is 0.0728, the “area with substrate ENLKFQS” value was 0.0606, the “area with substrate ENLNFQS” value was 0.0649 and the “area with substrate ENLPFQS” value came out at 0.0572. For the same variant, the “area with substrate ENLQFQS” value stood at 0.0565, the “area with substrate ENLRFQS” value is 0.0731 and the “area with substrate ENLSFQS” value is 0.0632.
Consider MGESLFKGPRDYNPISSSICHLTNESDGHTTSLYGIGFGPFIITNKHLFRRNNGTLVVQSLHGVFKVKDTTTLQAHLVDGRDMIIIRMPKDFPPFPQKLKFREPQREERICLVTTNFQTKSMSSMVSDTSCTFPSGDGIFWKHWIQTKDGQCGSPLVSTRDGFIVGIHSASNFTNTNNYFTSVPKNFMELLTNQEAQQWVSGWRLNADSVLWGGHKVFMVKPEEPFQPVKEATQL [Q75A], for which the “area with substrate ENLCFQS” value turned out to be 0.0565, the “area with substrate ENLDFQS” value worked out at 0.0644, the “area with substrate ENLEFQS” value is 0.0505 and the “area with substrate ENLFFQS” value worked out at 0.0579. The “area with substrate ENLHFQS” value was 0.0581, the “area with substrate ENLIFQS” value was 0.0603, the “area with substrate ENLKFQS” value was 0.0655 and the “area with substrate ENLLFQS” value stood at 0.0534. Further, the “area with substrate ENLNFQS” value was 0.0596, the “area with substrate ENLPFQS” value turned out to be 0.0634, the “area with substrate ENLSFQS” value worked out at 0.0629 and the “area with substrate ENLWFQS” value was 0.0776.
With MGESLFKGPRDYNPISSSICHLTNESDGHTTSRYGIGFGPFIITNKHLFRRNNGTLVVQSLHGVFKVKDTTTLQQHLVDGRDMIIIRMPKDFPPFPQKLKFREPQREERICLVTTNFQTKSMSSMVSDTSCTFPSGDGIFWKHWIQTKDGQCGSPLVSTRDGFIVGIHSASNFTNTNNYFTSVPKNFMELLTNQEAQQWVSGWRLNADSVLWGGHKVFMVKPEEPFQPVKEATQL [L33R], the “area with substrate ENLCFQS” value turned out to be 0.0734, the “area with substrate ENLDFQS” value was 0.0645, the “area with substrate ENLEFQS” value came to 0.0603 and the “area with substrate ENLFFQS” value is 0.0718. Besides, the “area with substrate ENLGFQS” value turned out to be 0.0707, the “area with substrate ENLHFQS” value was determined as 0.0585, the “area with substrate ENLIFQS” value stood at 0.0644 and the “area with substrate ENLKFQS” value stood at 0.0632. Further, the “area with substrate ENLLFQS” value worked out at 0.066, the “area with substrate ENLNFQS” value was determined as 0.0729, the “area with substrate ENLPFQS” value worked out at 0.0515 and the “area with substrate ENLQFQS” value came to 0.0709. Moreover, the “area with substrate ENLSFQS” value worked out at 0.0641, the “area with substrate ENLTFQS” value was determined as 0.0535 and the “area with substrate ENLVFQS” value worked out at 0.0639.
With MGESLFKGPRDYNPISSSICHLTNESDGHTTSYYGIGFGPFIITNKHLFRRNNGTLVVQSLHGVFKVKDTTTLQQHLVDGRDMIIIRMPKDFPPFPQKLKFREPQREERICLVTTNFQTKSMSSMVSDTSCTFPSGDGIFWKHWIQTKDGQCGSPLVSTRDGFIVGIHSASNFTNTNNYFTSVPKNFMELLTNQEAQQWVSGWRLNADSVLWGGHKVFMVKPEEPFQPVKEATQL [L33Y], the “area with substrate ENLCFQS” value was found to be 0.0494, the “area with substrate ENLDFQS” value was found to be 0.0596, the “area with substrate ENLEFQS” value came to 0.0718 and the “area with substrate ENLHFQS” value is 0.0582. Further, the “area with substrate ENLIFQS” value stood at 0.063, the “area with substrate ENLKFQS” value is 0.0651, the “area with substrate ENLMFQS” value came out at 0.0521 and the “area with substrate ENLNFQS” value worked out at 0.0608. The “area with substrate ENLPFQS” value came out at 0.0646, the “area with substrate ENLQFQS” value was 0.0564, the “area with substrate ENLRFQS” value is 0.109 and the “area with substrate ENLSFQS” value worked out at 0.0721. The “area with substrate ENLVFQS” value is 0.0502.
In the case of MGESLFKGPRDYNPISSSICHLTNESDGHTTSHYGIGFGPFIITNKHLFRRNNGTLVVQSLHGVFKVKDTTTLQQHLVDGRDMIIIRMPKDFPPFPQKLKFREPQREERICLVTTNFQTKSMSSMVSDTSCTFPSGDGIFWKHWIQTKDGQCGSPLVSTRDGFIVGIHSASNFTNTNNYFTSVPKNFMELLTNQEAQQWVSGWRLNADSVLWGGHKVFMVKPEEPFQPVKEATQL [L33H], the “area with substrate ENLCFQS” value amounted to 0.0507, the “area with substrate ENLDFQS” value stood at 0.0609, the “area with substrate ENLEFQS” value worked out at 0.0679 and the “area with substrate ENLFFQS” value was determined as 0.067. Also, the “area with substrate ENLGFQS” value stood at 0.0728, the “area with substrate ENLHFQS” value was found to be 0.0588, the “area with substrate ENLIFQS” value was determined as 0.067 and the “area with substrate ENLKFQS” value stood at 0.0678. The “area with substrate ENLLFQS” value is 0.059, the “area with substrate ENLNFQS” value came to 0.0586, the “area with substrate ENLPFQS” value is 0.0704 and the “area with substrate ENLQFQS” value was 0.0654. Further, the “area with substrate ENLRFQS” value stood at 0.057, the “area with substrate ENLSFQS” value amounted to 0.0649 and the “area with substrate ENLWFQS” value was found to be 0.0615.
On to MGESLFKGPRDYNPISSSICHLTNESDGHTTSLYGIGFGPFIITNKHLFRRNNGTLVVQSLHGVFKVKDLTTLQQHLVDGRDMIIIRMPKDFPPFPQKLKFREPQREERICLVTTNFQTKSMSSMVSDTSCTFPSGDGIFWKHWIQTKDGQCGSPLVSTRDGFIVGIHSASNFTNTNNYFTSVPKNFMELLTNQEAQQWVSGWRLNADSVLWGGHKVFMVKPEEPFQPVKEATQL [T70L], for which the “area with substrate ENLCFQS” value stood at 0.0641, the “area with substrate ENLDFQS” value was 0.0588, the “area with substrate ENLEFQS” value amounted to 0.0754 and the “area with substrate ENLFFQS” value came out at 0.0629. Besides, the “area with substrate ENLGFQS” value amounted to 0.071, the “area with substrate ENLHFQS” value amounted to 0.0456, the “area with substrate ENLKFQS” value came out at 0.0635 and the “area with substrate ENLMFQS” value was 0.0589. For the same variant, the “area with substrate ENLNFQS” value was 0.0732, the “area with substrate ENLPFQS” value is 0.0614, the “area with substrate ENLRFQS” value was found to be 0.0517 and the “area with substrate ENLSFQS” value was determined as 0.0667. Further, the “area with substrate ENLVFQS” value is 0.0773.
Take MGESLFKGPRDYNPISSSICHLTNESDGHTTSLYGIGFGPFIITNKHLFRRNNGTLVVQSLHGVFKVKDTTTQQQHLVDGRDMIIIRMPKDFPPFPQKLKFREPQREERICLVTTNFQTKSMSSMVSDTSCTFPSGDGIFWKHWIQTKDGQCGSPLVSTRDGFIVGIHSASNFTNTNNYFTSVPKNFMELLTNQEAQQWVSGWRLNADSVLWGGHKVFMVKPEEPFQPVKEATQL [L73Q]: the “area with substrate ENLCFQS” value turned out to be 0.0664, the “area with substrate ENLDFQS” value came out at 0.0566, the “area with substrate ENLEFQS” value came out at 0.0529 and the “area with substrate ENLFFQS” value turned out to be 0.0583. In addition, the “area with substrate ENLGFQS” value was 0.0288, the “area with substrate ENLHFQS” value came out at 0.0635, the “area with substrate ENLIFQS” value was 0.0671 and the “area with substrate ENLKFQS” value worked out at 0.0564. For the same variant, the “area with substrate ENLMFQS” value stood at 0.0488, the “area with substrate ENLNFQS” value amounted to 0.0551, the “area with substrate ENLQFQS” value turned out to be 0.0535 and the “area with substrate ENLSFQS” value is 0.0446. In addition, the “area with substrate ENLVFQS” value came out at 0.0752 and the “area with substrate ENLWFQS” value was 0.0463.
Take MGESLFKGPRDYNPISSSICHLTNESDGHTTSLYGIGFGPFIITNKHLFRRNNGTLVVQSLHGVFKVKDTTTRQQHLVDGRDMIIIRMPKDFPPFPQKLKFREPQREERICLVTTNFQTKSMSSMVSDTSCTFPSGDGIFWKHWIQTKDGQCGSPLVSTRDGFIVGIHSASNFTNTNNYFTSVPKNFMELLTNQEAQQWVSGWRLNADSVLWGGHKVFMVKPEEPFQPVKEATQL [L73R]: the “area with substrate ENLCFQS” value is 0.0487, the “area with substrate ENLDFQS” value is 0.06, the “area with substrate ENLEFQS” value was determined as 0.0731 and the “area with substrate ENLFFQS” value worked out at 0.097. In addition, the “area with substrate ENLGFQS” value was determined as 0.058, the “area with substrate ENLHFQS” value was determined as 0.0718, the “area with substrate ENLIFQS” value was 0.0603 and the “area with substrate ENLKFQS” value came to 0.0582. The “area with substrate ENLNFQS” value turned out to be 0.0478, the “area with substrate ENLPFQS” value was determined as 0.065, the “area with substrate ENLQFQS” value is 0.0553 and the “area with substrate ENLRFQS” value is 0.053. Also, the “area with substrate ENLVFQS” value came out at 0.0596 and the “area with substrate ENLWFQS” value was 0.0625.
As to MGESLFKGPRDYNPISSSICHLTNESDGHTTSLYGIGFGPFIITNKHLFRRNNGTLVRQSLHGVFKVKDTTTLQQHLVDGRDMIIIRMPKDFPPFPQKLKFREPQREERICLVTTNFQTKSMSSMVSDTSCTFPSGDGIFWKHWIQTKDGQCGSPLVSTRDGFIVGIHSASNFTNTNNYFTSVPKNFMELLTNQEAQQWVSGWRLNADSVLWGGHKVFMVKPEEPFQPVKEATQL [V58R], the “area with substrate ENLCFQS” value turned out to be 0.0457, the “area with substrate ENLDFQS” value was 0.0438, the “area with substrate ENLEFQS” value was 0.054 and the “area with substrate ENLFFQS” value was found to be 0.0569. Also, the “area with substrate ENLIFQS” value was 0.0585, the “area with substrate ENLNFQS” value was found to be 0.0643, the “area with substrate ENLQFQS” value turned out to be 0.0593 and the “area with substrate ENLRFQS” value came out at 0.0529. Besides, the “area with substrate ENLSFQS” value stood at 0.057.
